From PubChem BioAssay AID1745853 (National Center for Advancing Translational Sciences (NCATS), 2022)
The list shows a part of the results. Further columns of the screen follow, without active or inactive calls.

How the values were obtained:
Assay in all cases: Primary Screen for Target Class Profiling of Small Molecule Inhibitors of Methyltransferases
[1] = target: Glycine N-methyltransferase (Homo sapiens) (UniProt Q14749); settings: purified enzyme, MTase-Glo SAH luminescence; measured here: GNMT inhibition; at 40 µM; stronger effect = lower value
Method in brief: (§1)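 Each enzyme was reacted with SAM and its substrate, with compounds tested once at 40 uM; SAH formed was read by MTase-Glo luminescence.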

[2] = target: Guanidinoacetate N-methyltransferase (Homo sapiens) (UniProt Q14353); settings: purified enzyme, MTase-Glo SAH luminescence; measured here: GAMT inhibition; at 40 µM; stronger effect = lower value
Method in brief: as §1

[3] = target: Histamine N-methyltransferase (Homo sapiens) (UniProt P50135); settings: purified enzyme, MTase-Glo SAH luminescence; measured here: HNMT inhibition; at 40 µM; stronger effect = lower value
Method in brief: as §1

[4] = target: Nicotinamide N-methyltransferase (Homo sapiens) (UniProt P40261); settings: purified enzyme, MTase-Glo SAH luminescence; measured here: NNMT inhibition; at 40 µM; stronger effect = lower value
Method in brief: as §1

[5] = target: Phenylethanolamine N-methyltransferase (Homo sapiens) (UniProt P11086); settings: purified enzyme, MTase-Glo SAH luminescence; measured here: PNMT inhibition; at 40 µM; stronger effect = lower value
Method in brief: as §1
On the % scale 0 is the no-effect control and ±100 the full control effect.

Row | SMILES | activity change, negative = inhibition [1] | activity change, negative = inhibition [2] | activity change, negative = inhibition [3] | activity change, negative = inhibition [4] | activity change, negative = inhibition [5]
1 | CCOc1ccccc1-n1c(C(C)N2CCN(C(=O)COc3ccc(Cl)cc3)CC2)nc2ccccc2c1=O (stereo unspecified) | 0.928% | 2.72% | 10.5% | -21.9% | -2.15%
2 | c1ccc(CCCN2CCN(CCOC(c3ccccc3)c3ccccc3)CC2)cc1 | -14.8% | 3.54% | -3.76% | -9.12% | 4.04%
3 | COc1ccc(C2c3cccn3-c3ccccc3CN2C(=O)Nc2ccc(C)c(F)c2)cc1 (stereo unspecified) | 9.47% | 0% | 1.58% | 3.3% | 5.66%
4 | O=C(Nc1ccc(F)cc1F)N1Cc2ccccc2-n2cccc2C1c1ccccc1 (stereo unspecified) | 6.26% | 4.33% | 1.26% | -0.972% | 7.92%
5 | CSc1ccc(C2c3cccn3-c3ccccc3CN2C(=O)NCCC(C)C)cc1 (stereo unspecified) | -4.08% | 0% | -1.09% | 1.95% | 3.85%
6 | COc1cccc(CNC(=O)N2Cc3ccccc3-n3cccc3C2C)c1 (stereo unspecified) | 8.86% | 3.59% | 1.55% | -6.79% | 8.06%
7 | CCOc1ccc(NC(=O)N2Cc3ccccc3-n3cccc3C2c2ccccc2C)cc1 (stereo unspecified) | 11.7% | 0% | 7.32% | 6.77% | 7.44%
8 | Cc1ccc(NC(=O)N2Cc3ccccc3-n3cccc3C2c2ccccc2C)c(C)c1 (stereo unspecified) | 7.66% | 0% | 3.25% | 1.93% | 2.89%
9 | CN(CCc1ccccn1)C[C@H]1CN2CC[C@H]1C[C@@H]2CNC(=O)c1ccco1 | -0.945% | -1.45% | -7.1% | 0.217% | 2.23%
10 | COc1cc(C)[nH]c(=O)c1CNC(=O)c1c(C)n([C@H](C)C2CCOCC2)c2ccccc12 | 1.9% | 5.93% | 12.3% | -12.3% | 2.34%
11 | C=C1[C@@H](C)C2[C@H](Cc3ccccc3)NC(=O)[C@@]23C(/C=C/C[C@H](C)C[C@@](C)(O)/C=C/[C@@H]3OC(C)=O)[C@@H]1O (stereo partly specified) | -1.72% | -5.93% | -0.951% | -15.8% | -2.15%
12 | CCN(C1CCOCC1)C1CNC1 | -1.17% | -1.41% | -2.99% | -3.64% | -6.74%
13 | CN1C(=O)CCS(=O)(=O)C1c1ccc(Cl)cc1 (stereo unspecified) | -6.84% | 3.28% | -2.52% | -6.02% | 4.93%
14 | Cc1cccc(C2c3cccn3-c3ccccc3CN2C(=O)Nc2cc(C)ccc2C)c1 (stereo unspecified) | 6.21% | -3.37% | -0.803% | -7.16% | -2.93%
15 | Cc1cccc(C2c3cccn3-c3ccccc3CN2C(=O)NC2CCCC2)c1 (stereo unspecified) | 8.32% | 0% | 5.74% | 4.03% | 4.61%
16 | C=C[C@H]1CN2CCC1C[C@H]2[C@H](O)c1ccnc2ccccc12 (stereo partly specified) | 6.08% |  | -4.96% |  | 
17 | CCOC(=O)c1cccc(NC(=O)N2Cc3ccccc3-n3cccc3C2c2ccccc2C)c1 (stereo unspecified) | 6.63% | 0% | 1.46% | 4.05% | 2.02%
18 | O=P1(N(CCCl)CCCl)NCCCO1 (stereo unspecified) | -11.4% | 4.12% | 1.4% | -3.78% | 2.98%
19 | O=C(O)Cc1cnc[nH]1 | 0.319% | 8.33% | 1.51% | 1.11% | 6.25%
20 | CC(C)C1c2cccn2-c2ccccc2CN1C(=O)Nc1cccc(Br)c1 (stereo unspecified) | 1.41% | 2.06% | 9.64% | 6.6% | 7.59%
21 | CN1C2CCC1CC(OC(=O)c1cc(Cl)cc(Cl)c1)C2 (stereo unspecified) | -0.816% | 8.66% | 4.79% | -6.69% | 1.79%

Row | SMILES | activity change, negative = inhibition [1] | activity change, negative = inhibition [2] | activity change, negative = inhibition [3] | activity change, negative = inhibition [4] | activity change, negative = inhibition [5]
22 | COc1ccc(C2c3cccn3-c3ccccc3CN2C(=O)Nc2ccccc2)cc1OC (stereo unspecified) | 8.55% | 0.371% | 6.09% | 1% | 7.22%
23 | Cc1cccc(C2c3cccn3-c3ccccc3CN2C(=O)Nc2cc(Cl)ccc2C)c1 (stereo unspecified) | 3.16% | 0.553% | -0.117% | -5.33% | -1.33%
24 | CCOC(=O)Cc1ccc(NC(=O)N2Cc3ccccc3-n3cccc3C2c2ccc(OC)cc2)cc1 (stereo unspecified) | 4.58% | 0.052% | -2.42% | -4.29% | 1.17%
25 | CCC1c2cccn2-c2ccccc2CN1C(=O)Nc1ccc(OC)cc1OC (stereo unspecified) | -5.69% | 1.71% | -23.9% | -12.9% | -4.16%
26 | N#Cc1cncc(N2CC3CCC(C2)N3CC(F)(F)F)c1 | -4.32% | -2.17% | -1.06% | -6.88% | -3.14%
27 | CCOc1ccc(C2c3cccn3-c3ccccc3CN2C(=O)Nc2ccccc2OCC)cc1 (stereo unspecified) | -2.54% | 0% | 5.21% | 2.29% | 0.342%
28 | Cc1cccc(NC(=O)N2Cc3ccccc3-n3cccc3C2c2ccccc2Cl)c1C (stereo unspecified) | 7.01% | 1.05% | 0.195% | -5.37% | 0.001%
29 | COc1ccc(-c2cc([C@H]3CN4CC[C@H]3C[C@@H]4COC(=O)Nc3ccccc3)n(C)n2)cc1 | -19.7% | -22.6% | -31.2% | -21.2% | -13.7%
30 | N[C@H]1[C@H](O)[C@@H](N2CCCCC2)[C@@H]2OC[C@H]1O2 | -1.36% | -6.97% | -1.01% | -9.25% | 0.172%
31 | COc1cccc(CNC(=O)N2Cc3ccccc3-n3cccc3C2c2cc(F)cc(F)c2)c1 (stereo unspecified) | 6.41% | 0% | -0.454% | -1.23% | 5.97%
32 | O=C(Nc1cccc(Br)c1)N1Cc2ccccc2-n2cccc2C1c1ccccc1 (stereo unspecified) | 7.6% | 0.719% | 4.95% | 0.917% | -1.41%
33 | O=C(O)[C@@H]1CCN1 | 2.72% | 9.51% | 7.56% | -5.18% | 0.735%
34 | CCOC(=O)c1ccccc1NC(=O)N1Cc2ccccc2-n2cccc2C1C (stereo unspecified) | 8.69% | 1.13% | 9.03% | 6.07% | 8.29%
35 | CCc1ccc(C2c3cccn3-c3ccccc3CN2C(=O)NC2CCCC2)cc1 (stereo unspecified) | 7.06% | 2.12% | 3.37% | 0.215% | 4.87%
36 | Cc1cccc(NC(=O)N2Cc3ccccc3-n3cccc3C2C(C)C)c1C (stereo unspecified) | -1.24% | 0% | 5.66% | 2.62% | 3.83%
37 | CO[C@@H]1[C@H](O)[C@@H](O[C@@H]2C[C@H]3CC[C@@H]4C(CC[C@]5(C)[C@@H](C6=CC(=O)OC6)CC[C@]45O)[C@@]3(C)[C@H](O)C2)O[C@H](C)[C@@H]1O (stereo partly specified) | -2.08% | -2.7% | 5.17% | -12.8% | -6.88%
38 | CCCN1CCO[C@@H]2c3cc(O)ccc3OC[C@H]21 | -8.11% | 5.4% | 1.19% | -4.12% | 7.02%
39 | CCC1c2cccn2-c2ccccc2CN1C(=O)Nc1ccc(OC)c(OC)c1 (stereo unspecified) | 2.37% | 0.744% | -2.75% | 0.059% | 5.63%
40 | Cc1ccc(-n2nccn2)c(C(=O)N2CCN(c3nc4cc(Cl)ccc4o3)CC[C@H]2C)c1 |  | -0.293% |  | -24.2% | -2.33%
41 | COc1ccc2c(c1OC)C(=O)O[C@H]2[C@@H]1c2cc3c(cc2CCN1C)OCO3 | -1.3% | 8.58% | 3.53% | -6.87% | 4.73%
42 | CN(C(=O)Cc1ccccc1)[C@H](CN1CCCC1)c1ccccc1 |  | -7.96% |  | -20.2% | -3.08%

Row | SMILES | activity change, negative = inhibition [1] | activity change, negative = inhibition [2] | activity change, negative = inhibition [3] | activity change, negative = inhibition [4] | activity change, negative = inhibition [5]
43 | CC1c2cccn2-c2ccccc2CN1C(=O)Nc1ccccc1Br (stereo unspecified) | 3.43% | 2.96% | 5.21% | 0.281% | 9.18%
44 | COc1ccc(C2c3cccn3-c3ccccc3CN2C(=O)NCc2ccccc2)cc1OC (stereo unspecified) | 6.62% | 0.798% | 0.27% | -1.1% | 4.47%
45 | O=C(Nc1ccccc1Cl)N1Cc2ccccc2-n2cccc2C1c1ccccc1 (stereo unspecified) | 5.18% | 4.35% | -2.61% | -2.84% | 2.52%
46 | O=C(Nc1ccccc1)N1Cc2ccccc2-n2cccc2C1c1ccccc1 (stereo unspecified) | 6.84% | 0.564% | -2.41% | -5.08% | -0.876%
47 | CN(C)c1ccc(C2c3cccn3-c3ccccc3CN2C(=O)NCCc2ccccc2)cc1 (stereo unspecified) | 7.3% | 0.741% | -2.21% | 2.57% | 6.64%
48 | COC(=O)CCNC(=O)N1Cc2ccccc2-n2cccc2C1c1ccc(SC)cc1 (stereo unspecified) | -2.08% | 0% | 2.88% | -9.55% | 3.59%
49 | CSc1ccc(C2c3cccn3-c3ccccc3CN2C(=O)Nc2cccc(C(F)(F)F)c2)cc1 (stereo unspecified) | 4.06% | 0% | 8.02% | 11.2% | 9.84%
50 | CCCNC(=O)N1Cc2ccccc2-n2cccc2C1c1ccc(Cl)cc1 (stereo unspecified) | 1.84% | 0% | 0.961% | -11.2% | 5.62%
51 | CCOCCCNC(=O)N1Cc2ccccc2-n2cccc2C1c1ccc(CC)cc1 (stereo unspecified) | 3.17% | 5.92% | -2.37% | -8.75% | 2.14%
52 | c1ccc2cc(CC3=NCCN3)ccc2c1 | 2.69% | 13.4% | -19.6% | -0.018% | 5.49%
53 | Cc1cccc(C2c3cccn3-c3ccccc3CN2C(=O)Nc2cccc(Br)c2)c1 (stereo unspecified) | 10.4% | 0% | 7.92% | 7.47% | 5.8%
54 | CCC1CN2CCC3(C(=O)Nc4cccc(O)c43)C2CC1/C(=C/OC)C(=O)OC (stereo unspecified) | -1.53% | -5.01% | 3.72% | -15.1% | -12.6%
55 | CC(C)(C)[C@]1(O)C[C@@H]2OC(=O)C[C@@]23C(=O)O[C@@H]2OC(=O)[C@@H](O)[C@]213 | 1.18% | 2.16% | 6.83% | -8.32% | -2.5%
56 | CC[C@H]1C[C@@H]2CC[C@@H](O2)[C@@H](C)C(=O)O[C@H](CC)C[C@H]2CC[C@H](O2)[C@H](C)C(=O)O[C@@H](C)C[C@@H]2CC[C@@H](O2)[C@@H](C)C(=O)O[C@H](CC)C[C@H]2CC[C@H](O2)[C@H](C)C(=O)O1 | -1.52% | -4.76% | 8.05% | -13.5% | -1.61%
57 | NC(=O)c1ncn2c1CN=C(c1ccccc1Br)c1cc(F)ccc1-2 | 2.07% | -0.237% | 3.48% | -19.8% | -4.84%
58 | CCC1c2cccn2-c2ccccc2CN1C(=O)Nc1ccccc1OC (stereo unspecified) | -13.5% | 2.89% | 0.408% | -2.13% | 2.41%
59 | CC1=NN=C(c2ccc(N)cc2)c2cc3c(cc2C1)OCO3 | -40.8% | -0.607% | -9.72% | -24.9% | -4.12%
60 | CNC(=O)N1N=C(c2ccc(N)cc2)c2cc3c(cc2CC1C)OCO3 (stereo unspecified) | 2.77% | 2.24% | 11.9% | -14.2% | 4.58%
61 | CCN1CCN(C(c2ccc(Cl)cc2)c2ccc(Cl)cc2)CC1 |  | 8.29% |  | -19.2% | 1.8%
62 | Nc1ncccc1CN1CC[C@H]2NCCC[C@]2(C(=O)O)C1 | -4.81% | -6.5% | -7.03% | -10.2% | -6.67%
63 | Cc1ccc(C2c3cccn3-c3ccccc3CN2C(=O)Nc2cc(Cl)ccc2C)cc1 (stereo unspecified) | 3.45% | 2.9% | 2.18% | -0.085% | -0.483%
